Assay results: article PMC9911399, “Two distinct binding modes provide the RNA-binding protein RbFox with extraordinary sequence specificity”
Substitutions are numbered along the chain they refer to; changes in the protein carry UniProt numbers. The list shows a part of the results.

T1: RBFOX1 RRM (Homo sapiens, UniProt Q9NWB1 109-208)
T1 sequence: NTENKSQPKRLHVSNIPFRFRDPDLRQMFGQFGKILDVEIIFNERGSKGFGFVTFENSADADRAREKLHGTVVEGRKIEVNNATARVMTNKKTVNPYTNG

B1: UAGUAUA (DNA:RNA)
RNA: GGGAGACCGGAAUUCAGAUUGUCCUAGUAUAUUAAAUCCCGUCGUAGCCACCA
DNA 1: CAATCTGAATTCCGGTCTCCC
DNA 2: TGGTGGCTACGACGGGATT
B2: UAUAGGA (DNA:RNA)
RNA: B1 RNA with G27U, U28A, A29G, U30G
DNA 1: CAATCTGAATTCCGGTCTCCC
DNA 2: TGGTGGCTACGACGGGATT
B3: AGAAGCA (DNA:RNA)
RNA: B1 RNA with U25A, A26G, G27A, U28A, A29G, U30C
DNA 1: CAATCTGAATTCCGGTCTCCC
DNA 2: TGGTGGCTACGACGGGATT
B4: UGUGCCA (DNA:RNA)
RNA: B1 RNA with A26G, G27U, U28G, A29C, U30C
DNA 1: CAATCTGAATTCCGGTCTCCC
DNA 2: TGGTGGCTACGACGGGATT
B5: CGAACGG (DNA:RNA)
RNA: GGGAGACCGGAAUUCAGAUUGUCCCGAACGGUUAAAUCCCGUCGUAGCCACCA
DNA 1: CAATCTGAATTCCGGTCTCCC
DNA 2: TGGTGGCTACGACGGGATT
B6: UAUAAUA (DNA:RNA)
RNA: B1 RNA with G27U, U28A
DNA 1: CAATCTGAATTCCGGTCTCCC
DNA 2: TGGTGGCTACGACGGGATT
B7: GGUUCUU (DNA:RNA)
RNA: B5 RNA with C25G, A27U, A28U, G30U, G31U
DNA 1: CAATCTGAATTCCGGTCTCCC
DNA 2: TGGTGGCTACGACGGGATT
B8: AGCACGG (DNA:RNA)
RNA: B5 RNA with C25A, A27C
DNA 1: CAATCTGAATTCCGGTCTCCC
DNA 2: TGGTGGCTACGACGGGATT
B9: AACUGAA (DNA:RNA)
RNA: B1 RNA with U25A, G27C, A29G, U30A
DNA 1: CAATCTGAATTCCGGTCTCCC
DNA 2: TGGTGGCTACGACGGGATT
B10: AAACAAU (DNA:RNA)
RNA: B1 RNA with U25A, G27A, U28C, U30A, A31U
DNA 1: CAATCTGAATTCCGGTCTCCC
DNA 2: TGGTGGCTACGACGGGATT
B11: CAGACGU (DNA:RNA)
RNA: B5 RNA with G26A, A27G, G31U
DNA 1: CAATCTGAATTCCGGTCTCCC
DNA 2: TGGTGGCTACGACGGGATT
B12: CCACUGG (DNA:RNA)
RNA: B5 RNA with G26C, A28C, C29U
DNA 1: CAATCTGAATTCCGGTCTCCC
DNA 2: TGGTGGCTACGACGGGATT
B13: GGGGGUC (DNA:RNA)
RNA: B1 RNA with U25G, A26G, U28G, A29G, A31C
DNA 1: CAATCTGAATTCCGGTCTCCC
DNA 2: TGGTGGCTACGACGGGATT
B14: UUCGGUG (DNA:RNA)
RNA: B1 RNA with A26U, G27C, U28G, A29G, A31G
DNA 1: CAATCTGAATTCCGGTCTCCC
DNA 2: TGGTGGCTACGACGGGATT
B15: GCUUCUG (DNA:RNA)
RNA: B5 RNA with C25G, G26C, A27U, A28U, G30U
DNA 1: CAATCTGAATTCCGGTCTCCC
DNA 2: TGGTGGCTACGACGGGATT
B16: CAUUUAG (DNA:RNA)
RNA: B5 RNA with G26A, A27U, A28U, C29U, G30A
DNA 1: CAATCTGAATTCCGGTCTCCC
DNA 2: TGGTGGCTACGACGGGATT
B17: CUGAGCU (DNA:RNA)
RNA: B5 RNA with G26U, A27G, C29G, G30C, G31U
DNA 1: CAATCTGAATTCCGGTCTCCC
DNA 2: TGGTGGCTACGACGGGATT
B18: AGAUCCC (DNA:RNA)
RNA: B5 RNA with C25A, A28U, G30C, G31C
DNA 1: CAATCTGAATTCCGGTCTCCC
DNA 2: TGGTGGCTACGACGGGATT
B19: CGUCAAC (DNA:RNA)
RNA: B5 RNA with A27U, A28C, C29A, G30A, G31C
DNA 1: CAATCTGAATTCCGGTCTCCC
DNA 2: TGGTGGCTACGACGGGATT
B20: AUUGCAA (DNA:RNA)
RNA: B5 RNA with C25A, G26U, A27U, A28G, G30A, G31A
DNA 1: CAATCTGAATTCCGGTCTCCC
DNA 2: TGGTGGCTACGACGGGATT

biological target: T1, RBFOX1 RRM; assay: EMSA; HiTS-Eq, 1 nM pool, 10 min; buffer printed only for the single-RNA assays: 10 mM Tris pH 7.5, 150 mM NaCl, 3.4 mM EDTA, 0.001% NP-40, 30 C; conditions: tags: His6 N-terminal (pET28a); label: 5' 32P
Outline: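 Relative association constants, normalised to the cognate motif, were derived by comparing read counts of each RNA species with those of the control reaction. The RNA sequenced was the free fraction, separated by 8% native PAGE after a 10 min equilibration in 50 µL of 1 nM 5′-radiolabelled RNA (7 randomized nucleotides) with increasing concentrations of purified wild-type or mutant RbFox RRM.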

Compared with B1, B2 is lower in binding signal: 0.00856 KA relative to UGCAUGU for the first, 0.00674 KA relative to UGCAUGU for the second.

Compared with B3, B4 is higher in binding signal: 0.0083 KA relative to UGCAUGU for the first, 0.0127 KA relative to UGCAUGU for the second.

First: B5
Second: B6
The binding signal of the first is higher: 0.0126 KA relative to UGCAUGU for the first, 0.00448 KA relative to UGCAUGU for the second.

Compared with B7, B8 is higher in binding signal: 0.0104 KA relative to UGCAUGU for the first, 0.0231 KA relative to UGCAUGU for the second.

First: B9
Second: B10
The binding signal of the first is higher: 0.0104 KA relative to UGCAUGU for the first, 0.00047 KA relative to UGCAUGU for the second.

First: B11
Second: B12
The binding signal of the first is lower: 0.00517 KA relative to UGCAUGU for the first, 0.00879 KA relative to UGCAUGU for the second.

First: B13
Second: B14
The binding signal of the first is higher: 0.0306 KA relative to UGCAUGU for the first, 0.0214 KA relative to UGCAUGU for the second.

Compared with B15, B16 is lower in binding signal: 0.0318 KA relative to UGCAUGU for the first, 0.00741 KA relative to UGCAUGU for the second.

First: B17
Second: B18
The binding signal of the first is higher: 0.0109 KA relative to UGCAUGU for the first, 0.00611 KA relative to UGCAUGU for the second.

First: B19
Second: B20
The binding signal of the first is lower: 0.00305 KA relative to UGCAUGU for the first, 0.00663 KA relative to UGCAUGU for the second.
